Data as given in article PMC10017685 (Nature Communications, 2023).
Read-outs that look alike come from different tables or passages of the source.

How the values were obtained:
[1] = tested on: Sheep red blood cells; test: Hemolysis assay (HC50); type: cell-based; details: for HC50 (µM/ml): sheep erythrocytes, recalculated from μg/mL values, estimated as in https://pubmed.ncbi.nlm.nih.gov/29307075/; for HC50: sheep red blood cells 4% (v/v) in PBS, peptides 1-[…], 60 min at 37 °C, hemoglobin release at 590 nm, 1% Triton-X 100 = 100% hemolysis, triplicate, HC50 by ic50.tk
Protocol: The hemolysis assay was conducted according to the procedure described previously. Sheep red blood cells (Defibrillated Sheep Blood, Graso, Poland) were used. […] Then the solution of RBCs was added to each well (100 μL with a 4% concentration of erythrocytes (v/v). The control wells for 0 and 100% hemolysis were also prepared: RBCs suspended in PBS and 1% of Triton-X 100, respectively. After that the plates were incubated for 60 min at 37 °C and then centrifuged at 800 × g for 10 min at 4 °C (Sorvall ST 16R Centrifuge, Thermo Scientific). The supernatant was carefully […] to new microtiter plates and the release of hemoglobin was measured at 590 nm (Multiskan™ GO Microplate Spectrophotometer, Thermo Scientific). Hemolysis for each concentration was calculated as the percentage of control with 100% hemolysis. All experiments were conducted in triplicate. The final values of HC50 were computed using ic50.tk tool.

[2] = tested on: E. coli ATCC 25922; type: cell-based, Escherichia coli
Protocol: (§1) Fresh cultures were used in antimicrobial assay. […] Moreover MBC was evaluated. […] All experiments were conducted in triplicate.

[3] = tested on: A. baumannii ATCC BAA 1605; type: cell-based, Acinetobacter baumannii; details: triplicate; for A. baumannii ATCC BAA 1605 MIC: second experimental round, broth microdilution (CLSI), Mueller-Hinton Broth, 0.5 × 10^5 CFU/mL, 1-[…], 18 h at 37 °C; for A. baumannii ATCC BAA 1605 MBC: second round, MIC well and two higher concentrations seeded on agar plates, no visible colonies
Protocol: as §1

[4] = tested on: S. aureus ATCC 33591; type: cell-based, Staphylococcus aureus
Protocol: as §1

[5] = tested on: E. coli ATCC 43827; type: cell-based, Escherichia coli
[6] = tested on: P. aeruginosa ATCC 9027; type: cell-based, Pseudomonas aeruginosa; details: triplicate; for P. aeruginosa ATCC 9027 MIC: second experimental round, broth microdilution (CLSI), Mueller-Hinton Broth, 0.5 × 10^5 CFU/mL, 1-[…], 18 h at 37 °C; for P. aeruginosa ATCC 9027 MBC: second round, MIC well and two higher concentrations seeded on agar plates, no visible colonies
Protocol: as §1

[7] = second experimental round, broth microdilution (CLSI), Mueller-Hinton Broth, 0.5 × 10^5 CFU/mL, 1-[…], 18 h at 37 °C, triplicate
[8] = second round, MIC well and two higher concentrations seeded on agar plates, no visible colonies, triplicate

Row | Compound | HC50 (µM/ml) [1] | HC50 [1] | E. coli ATCC 25922 MBC ([2]; Supplementary Data 5D/5E) | E. coli ATCC 25922 MIC ([2]; Supplementary Data 5D/5E) | E. coli ATCC 25922 MIC [2, 7] | E. coli ATCC 25922 MBC [2, 8] | A. baumannii ATCC BAA 1605 MIC [3] | A. baumannii ATCC BAA 1605 MBC [3] | S. aureus ATCC 33591 MBC ([4]; Supplementary Data 5D/5E) | S. aureus ATCC 33591 MIC ([4]; Supplementary Data 5D/5E) | S. aureus ATCC 33591 MIC [4, 7] | S. aureus ATCC 33591 MBC [4, 8] | E. coli ATCC 43827 MBC ([5]; Supplementary Data 5D/5E) | E. coli ATCC 43827 MIC ([5]; Supplementary Data 5D/5E) | E. coli ATCC 43827 MIC [5, 7] | E. coli ATCC 43827 MBC [5, 8] | P. aeruginosa ATCC 9027 MIC [6] | P. aeruginosa ATCC 9027 MBC [6] | further results
1 | CC[C@H](C)[C@H](NC(=O)[C@H](Cc1c[nH]c2ccccc12)NC(=O)[C@H](CCCNC(=N)N)NC(=O)[C@H](CC(C)C)NC(=O)[C@@H](N)CC(C)C)C(=O)N[C@@H](Cc1c[nH]c2ccccc12)C(=O)N[C@@H](CCCNC(=N)N)C(=O)N1CCC[C@H]1C(=O)N[C@@H](Cc1c[nH]c2ccccc12)C(=O)N[C@@H](CCCNC(=N)N)C(=O)N[C@@H](CCCNC(=N)N)C(N)=O [Centaxin] | >232 µM/ml | >512 µg/mL | 64 µg/mL | 32 µg/mL | 32 µg/mL | 64 µg/mL | 256 µg/mL | 256 µg/mL | 64 µg/mL | 32 µg/mL | 32 µg/mL | 64 µg/mL | 64 µg/mL | 32 µg/mL | 32 µg/mL | 64 µg/mL | 64 µg/mL | 128 µg/mL | –
2 | CC[C@H](C)[C@H](NC(=O)[C@H](CCCCN)NC(=O)[C@H](CCCCN)NC(=O)[C@@H](NC(=O)[C@@H](NC(=O)[C@H](CCCCN)NC(=O)[C@@H](NC(=O)[C@H](C)NC(=O)[C@@H](NC(=O)[C@H](Cc1c[nH]cn1)NC(=O)CNC(=O)[C@H](C)NC(=O)[C@H](CC(C)C)NC(=O)[C@H](CC(=O)O)NC(=O)[C@H](CCCCN)NC(=O)[C@H](C)NC(=O)CNC(=O)CNC(=O)[C@H](CCCCN)NC(=O)[C@H](CC(C)C)NC(=O)[C@H](Cc1c[nH]cn1)NC(=O)[C@H](CC(=O)O)NC(=O)[C@@H](NC(=O)[C@@H](NC(=O)CN)C(C)C)[C@@H](C)CC)C(C)C)[C@@H](C)O)C(C)C)[C@@H](C)CC)C(N)=O [Syphaxin-TII8] | 147 µM/ml | >512 µg/mL | – | – | >512 µg/mL | >512 µg/mL | >512 µg/mL | >512 µg/mL | – | – | >512 µg/mL | >512 µg/mL | – | – | >512 µg/mL | >512 µg/mL | >512 µg/mL | >512 µg/mL | –
3 | CC[C@H](C)[C@H](N)C(=O)N[C@@H](CC(C)C)C(=O)N[C@@H](CCCNC(=N)N)C(=O)N[C@@H](Cc1c[nH]c2ccccc12)C(=O)N1CCC[C@H]1C(=O)N[C@@H](Cc1c[nH]c2ccccc12)C(=O)N[C@@H](CCCNC(=N)N)C(=O)N[C@H](C(=O)N[C@@H](Cc1c[nH]c2ccccc12)C(=O)N[C@@H](CCCNC(=N)N)C(=O)N[C@@H](CCCNC(=N)N)C(N)=O)[C@@H](C)CC [Omiganan-TII10] | >232 µM/ml | >512 µg/mL | 128 µg/mL | 64 µg/mL | 64 µg/mL | 128 µg/mL | 256 µg/mL | 256 µg/mL | 128 µg/mL | 64 µg/mL | 64 µg/mL | 128 µg/mL | 64 µg/mL | 64 µg/mL | 64 µg/mL | 64 µg/mL | 128 µg/mL | 256 µg/mL | –
4 | CC[C@H](C)[C@H](NC(=O)[C@H](Cc1c[nH]c2ccccc12)NC(=O)[C@H](CCCNC(=N)N)NC(=O)[C@H](CC(C)C)NC(=O)CN)C(=O)N[C@@H](Cc1c[nH]c2ccccc12)C(=O)N[C@@H](CCCCN)C(=O)N[C@H](C(=O)N[C@@H](Cc1c[nH]c2ccccc12)C(=O)N[C@@H](CCCNC(=N)N)C(=O)N[C@@H](CCCNC(=N)N)C(=O)N[C@@H](CC(C)C)C(N)=O)[C@@H](C)CC [Suselkan] | 42 µM/ml | 95 µg/mL | 16 µg/mL | 8 µg/mL | – | 16 µg/mL | 4 µg/mL | 4 µg/mL | 4 µg/mL | 4 µg/mL | – | 4 µg/mL | 8 µg/mL | 4 µg/mL | 4 µg/mL | 8 µg/mL | 16 µg/mL | 32 µg/mL | –
5 | CC[C@H](C)[C@H](N)C(=O)N[C@@H](CC(C)C)C(=O)N[C@@H](CCCNC(=N)N)C(=O)N[C@@H](CCCCN)C(=O)N1CCC[C@H]1C(=O)N[C@@H](Cc1c[nH]c2ccccc12)C(=O)N[C@@H](CCCNC(=N)N)C(=O)N[C@H](C(=O)N[C@@H](Cc1c[nH]c2ccccc12)C(=O)N[C@@H](CCCNC(=N)N)C(=O)N[C@@H](CCCNC(=N)N)C(N)=O)[C@@H](C)CC [Omiganan-TII12] | >226 µM/ml | >512 µg/mL | 512 µg/mL | 64 µg/mL | 64 µg/mL | 512 µg/mL | >512 µg/mL | >512 µg/mL | >512 µg/mL | 512 µg/mL | 512 µg/mL | >512 µg/mL | 128 µg/mL | 64 µg/mL | 64 µg/mL | 128 µg/mL | 512 µg/mL | >512 µg/mL | –
6 | CC[C@H](C)[C@H](NC(=O)[C@H](CCCNC(=N)N)NC(=O)CN)C(=O)N[C@@H](CC(C)C)C(=O)N[C@@H](CCCCN)C(=O)N[C@@H](Cc1ccccc1)C(=O)N[C@H](C(=O)N[C@@H](CCCCN)C(=O)N[C@@H](CCCCN)C(=O)N[C@@H](C)C(=O)N[C@@H](Cc1c[nH]c2ccccc12)C(=O)N[C@@H](CCCNC(=N)N)C(=O)N[C@@H](CCCCN)C(=O)N[C@H](C(=O)N[C@@H](Cc1c[nH]cn1)C(=O)N[C@@H](CC(C)C)C(=O)N[C@@H](CCCCN)C(=O)N[C@@H](Cc1ccccc1)C(=O)N[C@@H](CC(=O)O)C(=O)N[C@@H](CCCCN)C(N)=O)[C@@H](C)CC)[C@@H](C)CC [Ratigan] | >140 µM/ml | – | – | – | 32 µg/mL | 32 µg/mL | 8 µg/mL | 8 µg/mL | – | – | 64 µg/mL | 64 µg/mL | – | – | 4 µg/mL | 4 µg/mL | 32 µg/mL | 64 µg/mL | –
7 | CC[C@H](C)[C@H](N)C(=O)NCC(=O)N[C@@H](CCCCN)C(=O)N[C@@H](CC(C)C)C(=O)N[C@@H](Cc1ccccc1)C(=O)N[C@@H](CCCCN)C(=O)N[C@@H](CCCNC(=N)N)C(=O)N[C@H](C(=O)N[C@H](C(=O)N[C@@H](CCC(=O)O)C(=O)N[C@@H](CCCNC(=N)N)C(=O)N[C@H](C(=O)N[C@@H](CCCCN)C(=O)N[C@@H](CCCNC(=N)N)C(=O)N[C@@H](Cc1ccccc1)C(=O)N[C@@H](CC(C)C)C(=O)N[C@@H](CCCNC(=N)N)C(=O)N[C@H](C(=O)N[C@@H](CC(C)C)C(=O)N[C@@H](CC(C)C)C(=O)N[C@@H](CCCNC(=N)N)C(=O)N[C@H](C(=O)N[C@@H](CC(C)C)C(=O)N[C@@H](CCCNC(=N)N)C(N)=O)[C@@H](C)CC)C(C)C)[C@@H](C)CC)C(C)C)[C@@H](C)CC [OP-145-TII4] | 40 µM/ml | 166 µg/mL | – | – | 256 µg/mL | 256 µg/mL | 256 µg/mL | 256 µg/mL | – | – | 128 µg/mL | 256 µg/mL | – | – | 256 µg/mL | 256 µg/mL | 256 µg/mL | 256 µg/mL | E. coli ATCC 25922 MBC [2]: 256 µg/mL; E. coli ATCC 25922 MIC [2]: 256 µg/mL; S. aureus ATCC 33591 MBC [4]: 256 µg/mL; E. coli ATCC 43827 MBC [5]: 256 µg/mL; E. coli ATCC 43827 MIC [5]: 256 µg/mL
